In all, about 310,000 compounds went through this assay and about 14,000 (4.5%) showed an effect of 50% or more. Effects have a minus sign here. Some of the results follow.
Target: human ether-à-go-go-related gene (hERG) potassium channel (human, UniProt Q12809)
Test: primary screen, population patch clamp on CHO cells stably expressing hERG
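Also: peak tail current of the secondary pulse compared with the same well before compound.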

Chain of human ether-à-go-go-related gene (hERG) potassium channel (Q12809 whole entry, looked up): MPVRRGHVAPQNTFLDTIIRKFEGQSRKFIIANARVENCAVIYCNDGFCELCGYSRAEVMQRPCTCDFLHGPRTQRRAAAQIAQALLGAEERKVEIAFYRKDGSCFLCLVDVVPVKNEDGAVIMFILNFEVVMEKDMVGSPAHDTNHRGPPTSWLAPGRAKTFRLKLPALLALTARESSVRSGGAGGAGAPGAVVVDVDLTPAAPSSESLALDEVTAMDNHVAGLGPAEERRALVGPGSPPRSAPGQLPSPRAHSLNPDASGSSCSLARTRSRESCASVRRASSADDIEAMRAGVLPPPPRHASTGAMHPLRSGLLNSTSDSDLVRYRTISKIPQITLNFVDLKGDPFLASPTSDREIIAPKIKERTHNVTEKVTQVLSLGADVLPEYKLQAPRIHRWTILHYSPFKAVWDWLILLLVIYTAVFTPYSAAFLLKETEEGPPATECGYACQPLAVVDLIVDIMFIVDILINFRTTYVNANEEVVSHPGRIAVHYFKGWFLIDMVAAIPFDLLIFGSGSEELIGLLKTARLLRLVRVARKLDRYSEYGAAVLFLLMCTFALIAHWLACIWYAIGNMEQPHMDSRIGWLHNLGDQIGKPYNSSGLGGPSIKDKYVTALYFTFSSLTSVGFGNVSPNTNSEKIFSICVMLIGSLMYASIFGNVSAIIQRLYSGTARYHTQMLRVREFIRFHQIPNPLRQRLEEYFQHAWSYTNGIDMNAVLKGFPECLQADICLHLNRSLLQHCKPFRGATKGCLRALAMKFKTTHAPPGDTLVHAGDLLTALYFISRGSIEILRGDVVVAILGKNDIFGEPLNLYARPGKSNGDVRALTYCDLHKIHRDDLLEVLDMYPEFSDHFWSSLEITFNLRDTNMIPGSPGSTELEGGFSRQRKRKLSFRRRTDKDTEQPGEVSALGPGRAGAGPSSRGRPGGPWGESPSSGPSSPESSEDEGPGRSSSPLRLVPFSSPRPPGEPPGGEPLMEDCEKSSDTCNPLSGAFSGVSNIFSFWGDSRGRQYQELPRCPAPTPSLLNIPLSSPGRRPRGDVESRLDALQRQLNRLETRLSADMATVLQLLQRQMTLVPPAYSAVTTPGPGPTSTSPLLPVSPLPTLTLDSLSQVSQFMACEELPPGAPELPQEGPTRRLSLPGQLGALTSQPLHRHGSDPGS

SMILES	hERG current change (%, negative = inhibition) at 10uM
CCOC(=O)COc1cc([N+](=O)[O-])cc2cccnc12	0.631%
N#Cc1nc(COc2ccc(Br)cc2)oc1N1CCCCCC1	-30.1%
CC1CC(=O)c2cnc(NCC3CCCO3)nc2C1 (centres unmarked)	5.18%
Cc1ccccc1NC(=O)COC(=O)Cc1cccc(C(F)(F)F)c1	6.41%
Cc1c(C(=O)Nc2ccncc2)oc2ccccc12	-6.79%
COc1ccc(OC)c(CCNC(=O)CCc2nnc3ccc(N4CCCCC4)nn23)c1	-22.8%
Cc1ccccc1COC(=O)CNC(=O)c1sc2ccccc2c1Cl	-3.79%
Cc1nc2ccc(Cl)cc2nc1C	2.73%
COCCNC(=O)Cn1nc(Cc2ccncc2)c2ccccc2c1=O	6.39%
Cc1ccc2oc(-c3ccco3)nc2c1	-1.55%
CCOc1ccc(C(CC(=O)O)NC(=O)COc2ccccc2OC)cc1OC (centres unmarked)	26.4%
COc1ccccc1NC(=O)COC(=O)c1c[nH]c2ccccc12	11.7%
COc1ccc(N2CCN(C(=O)c3ccc(N4CCCCS4(=O)=O)cc3)CC2)cc1	7.44%
Nc1ccccc1NC(=O)c1ccccc1N	-0.193%
CCOc1cc(C2c3c(n[nH]c3C)C(=O)N2c2ccc(Br)cc2)ccc1O (centres unmarked)	-3.62%
COC(=O)c1cnn(C(=O)c2cc(OC)ccc2Br)c1N	4.21%
Cc1ccc(C2CC(c3cccc(Cl)c3)n3nc(N)nc3N2)cc1 (centres unmarked)	5.87%
Cc1cc(=O)oc2cc(OCC(=O)OCC(=O)Nc3ccc(C(N)=O)cc3)ccc12	8.64%
CCOC(=O)c1cc(C(=O)OCC)cc(-n2cc(O)c(C(=O)OCC)n2)c1	13.1%
O=C(O)c1cc([N+](=O)[O-])ccc1C(=O)Nc1ccccc1	12.7%
CSc1ccn(CCC(=O)O)c(=O)n1	8.46%
Nc1c(C(=O)C2CC2)sc2nc(-c3cccs3)cc(C(F)(F)F)c12	19.9%
COc1ccc(N(CC(=O)N2CCCCCC2)S(=O)(=O)c2c(C)[nH]c(=O)[nH]c2=O)cc1	2.82%
CCOC(=O)c1cc(=O)n(-c2ccc(Cl)cc2C)[nH]1	9.94%
CCOC(=O)/C(C#N)=C/c1c(OCC)n(CC)c2ccccc12	-5.46%
CCn1c(SCC(=O)Nc2cc(C)on2)nnc1-c1ccco1	-4.87%

Source: publication PMC4336329 (PLoS ONE, 2015)
